Reference: US20070167608A1, “Sugar chain structure profiling techniques” (priority 2003, published 2007)

Tested on: lectin-sugar chain interaction
Experiment: Lectin array in the presence of competitively inhibiting sugar
Conditions: Cy3-ASF probe, increasing lactose concentration

**Q.** For `OC[C@H]1O[C@@H](O[C@H]2[C@H](O)[C@@H](O)C(O)O[C@@H]2CO)[C@H](O)[C@@H](O)[C@H]1O` (stereo partly shown) [lactose], which “Fluorescence intensity of the spots in the presence of lactose” value is on record?
**A.** The value was “decrease as the concentration of inhibiting sugar increased”.
